From PubChem BioAssay AID1508624 (National Center for Advancing Translational Sciences (NCATS), 2021)
Screen size: about 48,000 compounds; about 120 (0.25%) were called active. Not shown: some 4% with an inconclusive outcome. Calls come from the whole dose curve; as a rule, active = well fitted activation curve with a large enough effect; inconclusive = small, poorly fitted or top-dose-only effect, or another doubt; inactive = no such curve, though single readings can be large or run the other way. The list shows a part of the results.

test: Primary qHTS for Identification of Small Molecule Activators of Huntingtin-Antisense Promoter Activity; settings: HEK293 HTT-AS promoter firefly luciferase reporter, 24 h; series mostly up to 57.5 µM; activity change, positive = activation: at the top concentration; note: nearly all actives have a fitted effect of over 55% in size
Procedure, shortened: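 Quantitative HTS used concentration series of up to 57.5 uM final on HEK293 luciferase reporter cells, 24 h at 37 degrees C. Readout was Dual-Glo firefly luminescence.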

Activity change, positive = activation, inactive:
Cc1ccc(S(=O)(=O)c2nnn3c2nc(N2CCOCC2)c2sccc23)cc1C -12%
CCN(CC)S(=O)(=O)c1ccc2c(c1)c(=O)c(C(=O)N1CCN(c3cccc(Cl)c3)CC1)cn2C -7.49%
CCc1ccc(C(=O)c2cn(CC(=O)Nc3ccc4c(c3)OCO4)c3ccc(F)cc3c2=O)cc1 -36.4%
Cn1c(=O)oc2cc(S(=O)(=O)NC(Cc3ccccc3)C(=O)NCc3ccccc3Cl)ccc21 (configuration not stated) 9.18%
CCOc1ccccc1CNC(=O)C1CCN(c2nc3ccccc3nc2C(F)(F)F)CC1 8.47%
COc1ccc(-c2n[nH]c3c2cnc2cc(OC)c(OC)cc23)cc1 1.32%
Cc1ccc(CSC2=Nc3ccccc3C3=NC(CC(=O)NCc4ccc5c(c4)OCO5)C(=O)N23)cc1 (configuration not stated) 0.334%
COc1cc(OC)c(NC(=O)c2ccc3c(c2)N(Cc2ccc(C)cc2)CCS3)cc1Cl -9.5%
Cc1cccc(C2N=C(N)Nc3nc4ccccc4n32)c1 (configuration not stated) -18.7%
COc1cc(C(=O)N2CCN(C(=O)COc3cccc(C)c3)CC2)cc(OC)c1OC 13.2% [at 11.5 µM, percent change from vehicle, -100% = no light]
COc1ccc(N2CCN(C(=O)c3cnn(-c4ccc(OC)cc4)c3C3CCN(C(=O)OC(C)(C)C)CC3)CC2)cc1 0.853%
Cc1cccc(C(=O)N(Cc2ccccc2F)C2CCS(=O)(=O)C2)c1 (configuration not stated) -7.39%
C=CC[C@@H]1C=C(C)C[C@H](C)C[C@H](OC)[C@H]2O[C@@](O)(C(=O)C(=O)N3CCCC[C@H]3C(=O)O[C@H](C(C)=C[C@@H]3CC[C@H](O)[C@H](OC)C3)[C@@H](C)[C@@H](O)CC1=O)[C@@H](C)C[C@@H]2OC -26.4%
COC(=O)c1c(NC(=O)COc2cccc(C(F)(F)F)c2)sc2c1CCCC2 9.49% [at 11.5 µM, percent change from vehicle, -100% = no light]
COc1ccc(Cc2nc3c4cnn(-c5cccc(F)c5)c4ncn3n2)cc1 -12.8%
CCCNC(=O)N1CCCN(S(=O)(=O)c2ccc3c(ccn3CC)c2)CC1 -14%
Cc1c(Cl)cccc1-c1ccc(/C=C(\C#N)c2nc3ccccc3[nH]2)o1 -10.6%
C=C[C@@H]1CN2CCC1C[C@H]2[C@H](O)c1ccnc2ccc(OC)cc12 (some centres not stated) -11.5%
CCCCOc1cccc(C(=O)N2CCN(CCc3ccncc3)CC2)c1 -11.4%
CCN(CC)c1ccc(NS(=O)(=O)c2cc(-c3cc(C)no3)ccc2C)c(C)c1 -32.9%
Cc1ccc(CNC(=O)C2CCCN(c3ncnc4onc(-c5ccc(F)cc5)c34)C2)cc1 (configuration not stated) -12%
CN1CC(=O)Nc2cc(C(=O)O)ccc21 -13.7%
